# Article PMC9456008, “Enantiocontrolled Preparation of ϒ-Substituted Cyclohexenones: Synthesis and Kinase Activity Assays of Cyclopropyl-Fused Cyclohexane Nucleosides” (International Journal of Molecular Sciences, 2022)
# Read-outs that look alike come from different tables or passages of the source.
# Assays:
# [1] = tested on: herpes simplex virus type 2 (HSV-2) strain G; assay: Inhibition of virus-induced cytopathicity in HEL cell cultures, HSV-2; assay type: cell-based; conditions: for EC50: read-out: Antiviral EC50 Herpes simplex virus-2 (G)
# [2] = tested on: herpes simplex virus type 1 (HSV-1) strain KOS; assay: Inhibition of virus-induced cytopathicity in HEL cell cultures, HSV-1; assay type: cell-based; conditions: for EC50: read-out: Antiviral EC50 Herpes simplex virus-1 (KOS)
# [3] = HEL cell cultures, at subtoxic concentrations (~100 μM)
# [4] = Human alphaherpesvirus 1, HEL cell cultures, reduces virus-induced cytopathogenic effect by 50%
# [5] = Human alphaherpesvirus 2, HEL cell cultures, reduces virus-induced cytopathogenic effect by 50%
Compound,"Antiherpetic activity HSV-2 (G) (in words) [1, 3]","EC50 ([1]; Human alphaherpesvirus 2, HEL)","Antiherpetic activity HSV-1 (KOS) (in words) [2, 3]","EC50 ([2]; Human alphaherpesvirus 1, HEL)","EC50 [2, 4]","EC50 [1, 5]"
"Nc1ccn(C2CCC(CO)C3CC32)c(=O)n1 (stereo not drawn) [Compound 2e, 4-Amino-1-[(1′S,2′S,5′R,6′R)-5′-(hydroxymethyl)bicyclo [4.1.0]hept-2′-yl]pyrimidin-2(1H)-one]",did not show significant antiviral activity,> 100000 nM,did not show significant antiviral activity,> 100000 nM,,
O=c1[nH]c(=O)n([C@H]2C[C@H](O)[C@@H](CO)O2)cc1/C=C/Br [Brivudin],,,,,40 nM,
Nc1nc2c(ncn2COCCO)c(=O)[nH]1 [Acyclovir],,,,,400 nM,400 nM
Nc1nc(O)c2ncn(COC(CO)CO)c2n1 [Ganciclovir],,,,,20 nM,50 nM
Nc1ccn(C[C@@H](CO)OCP(=O)(O)O)c(=O)n1 [Cidofovir],,,,,2000 nM,1400 nM
